Sequences with one replicate were seen in a single cluster, so their values are uncertain.
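Also: ATP exposure 15 min at 22 °C before imaging.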

For this series, the system named is ATP. In words: switch fluorescence ratio, 500 uM ATP over buffer (Cy3 cluster intensity, sum of 5 cycles each) (fold (ratio)); higher = stronger signal-on switching upon ATP binding; sequences stand for … in TCGTCGGCAGCGTCAGATGTGTATAAGAGACAGTTTTTTTTTTTTTTTTTTTTTTTTT…TC. To be noted: aptamer strand: ATP DNA aptamer (quencher-CACCTGGGGGAGTATTGCGGAGGAAGG + anchor), 100 nM annealed; ATP concentration: 500 uM; one replicate. The method, boiled down:
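Per cluster, summed Cy3 intensity from the target cycles was divided by that from the buffer cycles to give the fluorescence ratio, then averaged per switch-domain sequence. Clusters outside 100-1000 RFU were excluded. The Cy3-labelled switching-strand clusters, on a modified Illumina MiSeq flow-cell, were annealed to 100 nM quencher-labelled ATP aptamer and imaged in selection buffer, then after 15 min with 500 uM ATP at 22 °C, for five cycles with NaOH stripping and re-annealing between them.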
As to CCGGTTGCGC, the switch fluorescence ratio came to 1.37.

For the sequence GGGTCTTAGT, the switch fluorescence ratio is 1.01.

Regarding TTCCGGGTGG, the switch fluorescence ratio amounted to 0.997.

Consider TTGCACAATA, for which the switch fluorescence ratio amounted to 1.05.

Regarding TCGATCCCTC, the switch fluorescence ratio came out at 0.98.

Regarding GGATATACGG, the switch fluorescence ratio came to 1.

In the case of TCTAGGTAGT, the switch fluorescence ratio turned out to be 1.05.

For GGTGAGCCCG, the switch fluorescence ratio turned out to be 0.956.

CACTGGGCAA: the switch fluorescence ratio turned out to be 0.924.

Consider CAAATCGCAG, for which the switch fluorescence ratio is 1.08.

Take TGTCCGGTGC: the switch fluorescence ratio worked out at 1.13.

In the case of CACAGTGCC, the switch fluorescence ratio was found to be 1.03.

On to GGGAACGCTA, for which the switch fluorescence ratio was 1.13.

Consider GAGAACCTAA, for which the switch fluorescence ratio amounted to 0.972.

Turning to CAGAACTACA, the switch fluorescence ratio turned out to be 1.05.

AACTTAAGAA: the switch fluorescence ratio came to 1.

Consider GCTGGTTGAT, for which the switch fluorescence ratio turned out to be 0.999.

As to TGAAGTGATC, the switch fluorescence ratio was found to be 1.08.

In the case of CAGGTCATCG, the switch fluorescence ratio is 1.02.

Regarding CCCCATTGGA, the switch fluorescence ratio worked out at 1.03.

As for GACTACAGAC, the switch fluorescence ratio came out at 1.15.

Turning to ATGCGGCGCC, the switch fluorescence ratio amounted to 0.943.

TTGGTGTGCT: the switch fluorescence ratio was 0.952.

For AAGGGGCTAC, the switch fluorescence ratio was found to be 1.08.

Turning to GATCTATAG, the switch fluorescence ratio came out at 1.04.

Consider ACCTTGCATT, for which the switch fluorescence ratio came out at 1.1.

For the sequence GGCACCATTA, the switch fluorescence ratio stood at 1.03.

For GCATATAGGT, the switch fluorescence ratio is 1.06.

With GTTTTCATAT, the switch fluorescence ratio is 1.01.

Turning to TGAACACGCC, the switch fluorescence ratio is 1.1.

For ACAGGGTTAT, the switch fluorescence ratio worked out at 1.03.

With CGATTTTGTC, the switch fluorescence ratio turned out to be 1.01.

In the case of AAGTTGCAAG, the switch fluorescence ratio was 0.999.

In the case of TTGAACGGTT, the switch fluorescence ratio amounted to 1.04.

Take CGAGAAGGAC: the switch fluorescence ratio was determined as 1.26.

As for CAGATTTCTT, the switch fluorescence ratio is 1.02.

Consider ACTGGTGTCT, for which the switch fluorescence ratio came to 1.05.

In the case of AAGACAAAC, the switch fluorescence ratio came to 1.08.

On to GGGTGTAAAG, for which the switch fluorescence ratio stood at 1.05.

Consider GGATGTAATT, for which the switch fluorescence ratio was found to be 1.

With TTTGCTACCA, the switch fluorescence ratio is 1.1.

As to CGTGACTTTA, the switch fluorescence ratio came to 1.09.

On to TCGCCGGGGA, for which the switch fluorescence ratio came to 1.04.

As to TTTATATAGC, the switch fluorescence ratio is 1.

As for TTGTCATCGA, the switch fluorescence ratio came to 0.949.

As to TAGCCTCTGG, the switch fluorescence ratio amounted to 0.996.

As for TATCTGAC, the switch fluorescence ratio is 1.08.

On to CGCGATAATA, for which the switch fluorescence ratio was 1.14.

As to TGGTTTCACC, the switch fluorescence ratio stood at 0.981.

For the sequence GGCCCCTTTG, the switch fluorescence ratio was 1.04.

On to CGTCGACGCG, for which the switch fluorescence ratio is 1.01.

AAGTACTTCT: the switch fluorescence ratio was 1.22.

TAGGCGGTGG: the switch fluorescence ratio is 0.968.

Regarding AGATTGCTCA, the switch fluorescence ratio came to 0.978.

With GGGGCCAAG, the switch fluorescence ratio came to 0.982.

For the sequence GATTATTCCA, the switch fluorescence ratio was 0.974.

For GCTTGGATG, the switch fluorescence ratio was 0.996.

With CCCGCCTCTG, the switch fluorescence ratio came out at 1.18.

GTGCAATAGC: the switch fluorescence ratio worked out at 1.92.

With TTAAGACCTG, the switch fluorescence ratio worked out at 1.03.

As to GTTGTATCCT, the switch fluorescence ratio is 1.08.

As to TACGATGTTT, the switch fluorescence ratio amounted to 1.1.

Consider GTGGGATATC, for which the switch fluorescence ratio was 0.971.

TGGTGATAGG: the switch fluorescence ratio is 1.03.

As to TAGTTTCCGG, the switch fluorescence ratio is 0.986.

Turning to TTCAGCAAAG, the switch fluorescence ratio amounted to 1.12.

As for GGGCTTCGGG, the switch fluorescence ratio is 1.05.

For the sequence AACGTTTCAT, the switch fluorescence ratio was 0.885.

With TATCGGGAAA, the switch fluorescence ratio stood at 0.978.

Turning to GCTGTGACTT, the switch fluorescence ratio turned out to be 1.21.

With CGTAAACATA, the switch fluorescence ratio is 1.02.

Consider AAGTTTTCGT, for which the switch fluorescence ratio stood at 0.979.

With ATAATGTA, the switch fluorescence ratio was found to be 0.977.

Consider TGGCTCACGT, for which the switch fluorescence ratio is 0.956.

Regarding TACGATTCCG, the switch fluorescence ratio was determined as 1.01.

Take TACAGTGCCA: the switch fluorescence ratio worked out at 1.02.

Turning to CGGTTACTAA, the switch fluorescence ratio came out at 1.01.

As to TACGGGGAGC, the switch fluorescence ratio amounted to 0.979.

With GGTAGGGC, the switch fluorescence ratio turned out to be 1.01.

On to CGATCTCATA, for which the switch fluorescence ratio came out at 0.98.

For the sequence GGAATGGATG, the switch fluorescence ratio stood at 1.01.

As to TGCATATCTA, the switch fluorescence ratio is 1.01.

CTTTTACATC: the switch fluorescence ratio was 0.985.

Regarding TTTGGAACAA, the switch fluorescence ratio is 1.02.

Regarding TCCAGGGCTG, the switch fluorescence ratio came out at 1.07.

With CTGGTGCTGG, the switch fluorescence ratio was 1.01.

Take TCATTGACTG: the switch fluorescence ratio came to 1.05.

Consider CGGAGCCAGC, for which the switch fluorescence ratio is 1.77.

With CTGTGATGTT, the switch fluorescence ratio came out at 1.03.

For the sequence GACATTAGTA, the switch fluorescence ratio worked out at 1.01.

Regarding TCCTGGGTCG, the switch fluorescence ratio is 0.965.

With AACAATATGC, the switch fluorescence ratio turned out to be 1.01.

For the sequence ACTCGCTCTG, the switch fluorescence ratio was determined as 1.09.

Turning to TTAAAATGGC, the switch fluorescence ratio worked out at 1.01.

As for GCAAGCGAAT, the switch fluorescence ratio stood at 1.06.

On to TATTGGCGCG, for which the switch fluorescence ratio turned out to be 1.11.

As for TCAGCGCTCT, the switch fluorescence ratio stood at 0.973.

As for TGAGCCAAAT, the switch fluorescence ratio was found to be 0.996.

Turning to AAAGGTATAG, the switch fluorescence ratio stood at 1.03.

For the sequence AGAAAACACG, the switch fluorescence ratio came out at 0.96.

Take ACGTGTAGTG: the switch fluorescence ratio was found to be 1.03.

For CACAATTGGT, the switch fluorescence ratio is 1.03.

GGTATCGCTG: the switch fluorescence ratio amounted to 0.887.

On to TATAGTGGGC, for which the switch fluorescence ratio came to 0.983.

GGTGGTGCCT: the switch fluorescence ratio was 1.01.

On to CCGGAAGATG, for which the switch fluorescence ratio is 1.14.

Turning to AGGACCTAAC, the switch fluorescence ratio was found to be 1.03.

Take CGGCTGCAAA: the switch fluorescence ratio was found to be 2.38.

As for TATCGATTTC, the switch fluorescence ratio was 1.05.

Consider AGATGTACTT, for which the switch fluorescence ratio was determined as 1.04.

As to ACTGTATGCG, the switch fluorescence ratio came to 1.06.

For the sequence ATGTTAGGAT, the switch fluorescence ratio was 0.978.

As for ACTTAAATT, the switch fluorescence ratio came out at 0.998.

Consider CACGGGGCGG, for which the switch fluorescence ratio came to 0.992.

On to AAGCACTCGA, for which the switch fluorescence ratio worked out at 1.21.

For the sequence TTCGTTACG, the switch fluorescence ratio came out at 0.981.

On to GGTTTAAACA, for which the switch fluorescence ratio is 1.01.

As for TGGATACAGG, the switch fluorescence ratio was determined as 1.04.

In the case of TTAGTTCTCA, the switch fluorescence ratio stood at 0.992.

Regarding TTAAACCCAT, the switch fluorescence ratio worked out at 1.01.

Source of the values: the supplement of paper PMC10126150.
